Where a chain is given by its changes, count along the chain named. The list shows a part of the results.
T1: RBFOX1 RRM (Homo sapiens, UniProt Q9NWB1 109-208)
T1 sequence: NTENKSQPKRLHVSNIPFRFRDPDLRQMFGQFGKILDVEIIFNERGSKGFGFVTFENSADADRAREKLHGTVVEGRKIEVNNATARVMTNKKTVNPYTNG

B1: GUAACAU (DNA:RNA)
RNA: GGGAGACCGGAAUUCAGAUUGUCCGUAACAUUUAAAUCCCGUCGUAGCCACCA
DNA 1: CAATCTGAATTCCGGTCTCCC
DNA 2: TGGTGGCTACGACGGGATT
B2: AUGAGGC (DNA:RNA)
RNA: B1 RNA with G25A, A27G, C29G, A30G, U31C
DNA 1: CAATCTGAATTCCGGTCTCCC
DNA 2: TGGTGGCTACGACGGGATT
B3: UUGGUCC (DNA:RNA)
RNA: B1 RNA with G25U, A27G, A28G, C29U, A30C, U31C
DNA 1: CAATCTGAATTCCGGTCTCCC
DNA 2: TGGTGGCTACGACGGGATT
B4: CGUGAGU (DNA:RNA)
RNA: B1 RNA with G25C, U26G, A27U, A28G, C29A, A30G
DNA 1: CAATCTGAATTCCGGTCTCCC
DNA 2: TGGTGGCTACGACGGGATT
B5: UCGGAGU (DNA:RNA)
RNA: B1 RNA with G25U, U26C, A27G, A28G, C29A, A30G
DNA 1: CAATCTGAATTCCGGTCTCCC
DNA 2: TGGTGGCTACGACGGGATT
B6: CGGCCUA (DNA:RNA)
RNA: B1 RNA with G25C, U26G, A27G, A28C, A30U, U31A
DNA 1: CAATCTGAATTCCGGTCTCCC
DNA 2: TGGTGGCTACGACGGGATT
B7: UAUCGAU (DNA:RNA)
RNA: B1 RNA with G25U, U26A, A27U, A28C, C29G
DNA 1: CAATCTGAATTCCGGTCTCCC
DNA 2: TGGTGGCTACGACGGGATT
B8: GGCGUAC (DNA:RNA)
RNA: B1 RNA with U26G, A27C, A28G, C29U, U31C
DNA 1: CAATCTGAATTCCGGTCTCCC
DNA 2: TGGTGGCTACGACGGGATT
B9: UUUUGAG (DNA:RNA)
RNA: B1 RNA with G25U, A27U, A28U, C29G, U31G
DNA 1: CAATCTGAATTCCGGTCTCCC
DNA 2: TGGTGGCTACGACGGGATT

Target: T1, RBFOX1 RRM
Assay: EMSA; HiTS-Eq, 1 nM pool, 10 min; buffer printed only for the single-RNA assays: 10 mM Tris pH 7.5, 150 mM NaCl, 3.4 mM EDTA, 0.001% NP-40, 30 C
Settings: tags: His6 N-terminal (pET28a); label: 5' 32P
Summary of the method: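 These values rest on relative association constants, computed from read-count changes of each RNA species versus the control reaction and normalised to the cognate motif. Reads came from free RNA recovered by 8% native PAGE after purified RbFox RRM (wild type or mutant) at increasing concentrations was equilibrated for 10 min in 50 µL with 1 nM of a 5′-radiolabelled pool with 7 randomized nucleotides and DNA-annealed flanks.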

Row | Binder | binding signal
1 | B1 | 0.00215 KA relative to UGCAUGU
2 | B2 | 0.0125 KA relative to UGCAUGU
3 | B3 | 0.0262 KA relative to UGCAUGU
4 | B4 | 0.0154 KA relative to UGCAUGU
5 | B5 | 0.00719 KA relative to UGCAUGU
6 | B6 | 0.00888 KA relative to UGCAUGU
7 | B7 | 0.00993 KA relative to UGCAUGU
8 | B8 | 0.0196 KA relative to UGCAUGU
9 | B9 | 0.0242 KA relative to UGCAUGU

From article PMC9911399, “Two distinct binding modes provide the RNA-binding protein RbFox with extraordinary sequence specificity”
